Assay results published in PubChem BioAssay AID720708 (National Center for Advancing Translational Sciences (NCATS), 2013).
Hit rate of the full screen: of about 360,000 compounds, about 660 (0.18%) were called active. Inconclusive means that the source gave no clear call. Such entries were picked first, then a sample of the others. Calls follow the shape of the dose curve; as a rule, active = well fitted inhibition curve with a large enough effect; inconclusive = small, poorly fitted or top-dose-only effect; inactive = no such curve, though single readings can be large or run the other way. No potency is given beside an inconclusive call; the fits are too rough.

target: Rap guanine nucleotide exchange factor 4 (Homo sapiens) (UniProt Q8WZA2); assay: qHTS for Antagonist of cAMP-regulated guanine nucleotide exchange factor 2 (EPAC2): primary screen; details: EPAC2 GEF exchange of Rap1B-BODIPY-GDP, fluorescence; activity, negative = inhibition: at 114 µM (top of the series) unless noted; also: nearly all actives have a fitted effect of over 45% in size
% is scaled to controls: 0 for no effect and ±100 for the full control effect; potency is read from the fitted curve at half-maximal effect; tags tell the direction and shape of the fitted curve.

Sequence of UniProt Q8WZA2 (Q8WZA2 whole entry, looked up): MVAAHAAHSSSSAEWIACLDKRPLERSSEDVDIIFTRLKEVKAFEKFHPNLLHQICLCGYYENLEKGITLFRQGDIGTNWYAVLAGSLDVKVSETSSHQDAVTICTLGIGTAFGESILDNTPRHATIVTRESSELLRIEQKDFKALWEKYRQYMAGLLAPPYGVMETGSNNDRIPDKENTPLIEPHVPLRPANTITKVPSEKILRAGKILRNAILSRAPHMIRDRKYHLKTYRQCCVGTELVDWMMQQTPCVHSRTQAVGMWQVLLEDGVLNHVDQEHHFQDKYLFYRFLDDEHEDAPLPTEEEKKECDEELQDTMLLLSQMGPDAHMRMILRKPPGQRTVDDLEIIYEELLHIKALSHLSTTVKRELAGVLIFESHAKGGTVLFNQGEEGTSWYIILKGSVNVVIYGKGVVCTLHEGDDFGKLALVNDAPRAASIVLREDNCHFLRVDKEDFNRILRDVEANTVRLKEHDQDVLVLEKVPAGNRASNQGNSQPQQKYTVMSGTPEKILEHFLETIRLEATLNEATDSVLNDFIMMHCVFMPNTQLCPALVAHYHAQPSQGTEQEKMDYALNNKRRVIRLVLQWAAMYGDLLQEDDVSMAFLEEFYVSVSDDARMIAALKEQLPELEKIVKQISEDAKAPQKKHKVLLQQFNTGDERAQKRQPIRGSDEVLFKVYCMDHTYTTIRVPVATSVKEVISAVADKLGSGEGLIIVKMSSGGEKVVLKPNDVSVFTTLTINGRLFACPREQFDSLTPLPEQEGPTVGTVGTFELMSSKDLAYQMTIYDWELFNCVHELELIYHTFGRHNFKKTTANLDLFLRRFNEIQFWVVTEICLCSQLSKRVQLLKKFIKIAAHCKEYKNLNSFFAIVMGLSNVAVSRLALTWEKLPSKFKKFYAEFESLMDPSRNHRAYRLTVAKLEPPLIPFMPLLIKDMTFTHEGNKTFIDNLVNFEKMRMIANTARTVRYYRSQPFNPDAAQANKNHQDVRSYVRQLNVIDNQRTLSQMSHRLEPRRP

| SMILES | Potency | activity, negative = inhibition |
| --- | --- | --- |
| COc1ccccc1Oc1nc(C)c(C(C)=O)cc1C#N | inconclusive [inhibitor, partial curve] | – |
| CCOC(=O)c1c(NC(=O)c2ccc(S(=O)(=O)N(C)CC3CCCO3)cc2)sc2c1CCN(C)C2 (stereo unspecified) | inconclusive [inhibitor, single point] | – |
| COc1ccccc1/C=C1\SC(=S)N(NS(=O)(=O)c2ccccc2)C1=O | inconclusive [inhibitor, partial curve, poor fit] | – |
| Cc1cc(NS(=O)(=O)c2ccc(NC(=O)Cc3ccc(Cl)c(Cl)c3)cc2)no1 | inconclusive [inhibitor, partial curve] | – |
| O=C(O)c1cccc(-n2c(O)c(C=C3N=c4ccccc4=N3)sc2=S)c1 | inconclusive [inhibitor, partial curve] | – |
| O=C(O)c1sccc1SCc1ccc(Cl)cc1Cl | inconclusive [inhibitor, partial curve] | – |
| CS(=O)(=O)Nc1ccc(C2=NN(S(C)(=O)=O)C(c3ccc4c(c3)OCO4)C2)cc1 (stereo unspecified) | – | inactive: -1.47% |
| CC(C)=CCCC(C)c1cc(C(=O)NCCc2ccc(O)cc2)c(N)s1 (stereo unspecified) | – | inactive: -13.8% |
| COc1ccc(C(CC(=O)N2CCCC2)c2ccc(F)cc2)cc1 (stereo unspecified) | inconclusive [inhibitor, partial curve] | – |
| COC(=O)c1cn(C(=O)c2ccccc2)c2ccccc12 | inconclusive [inhibitor, partial curve] | – |
| CC(=O)Nc1ccc(S(=O)(=O)NCCC(=O)OCC(=O)c2ccc(Br)cc2)cc1 | – | inactive: 1.27% |
| COc1ccc(CCN(C)C(=O)CCc2nnc(-c3ccccc3)o2)cc1OC | – | inactive: 1.68% |
| Cn1cc(C(=O)c2cccc(Cl)c2)cc1C#N | inconclusive [inhibitor, full curve] | – |
| COc1ccc(C2=CC(=O)C[C@H](c3ccc(F)cc3)C2)c(OC)c1 | inconclusive [inhibitor, partial curve] | – |
| Cc1ccc(C(=O)Cc2ccccc2)c(O)c1 | inconclusive [inhibitor, partial curve] | – |
| COC1CC(N)C2OC(c3ccccc3)OCC2O1 (stereo unspecified) | – | inactive: -3.16% |
| CCc1c(C(=O)N/N=C/c2ccc(OCc3ccc(F)cc3)c(OC)c2)nnn1-c1nonc1N | inconclusive [inhibitor, single point] | – |
| COc1ccc(-c2nnc(Nc3nc4c(OC)cccc4s3)o2)cc1 | inconclusive [inhibitor, partial curve] | – |
| CCCCNc1c(-c2ccc(SC(C)CC)cc2)nc2cnccn12 (stereo unspecified) | inconclusive [inhibitor, full curve] | – |
| COc1ccc(/C=C2\CCc3ccccc3C2=O)c(OC)c1OC | inconclusive [inhibitor, partial curve] | – |
| O=C(NCc1ccco1)c1ccc(C(=O)NCc2ccco2)cc1 | – | inactive: 1.41% |
| CC(=O)n1c(=O)c2ccccc2c(=O)n1-c1ccccc1 | inconclusive [inhibitor, single point] | – |

| SMILES | Potency | activity, negative = inhibition |
| --- | --- | --- |
| CCCCSC1=N/C(=C/c2ccsc2)C(=O)N1c1ccccc1 | inconclusive [inhibitor, full curve] | – |
| Nc1ccccc1C(=O)N1CCc2ccccc21 | – | inactive: -6.07% |
| CCCCCCCCN1[C@@H](CC(=O)OC)c2cc(F)ccc2S1(=O)=O | inconclusive [inhibitor, partial curve] | – |
| CCCCCCN(C(=O)CCl)c1ccccc1 | inconclusive [inhibitor, single point] | – |
| C[C@H]1CN([C@@H](C)CO)S(=O)(=O)c2ccc(Br)cc2O[C@@H]1CN(C)Cc1cccc(F)c1 | inconclusive [inhibitor, partial curve] | – |
| COc1ccc(/C=C2\SC(=S)N(CCCC(=O)N3CCN(C)CC3)C2=O)cc1OC | – | inactive: 10.8% |
| O=C(CN1C(=O)CCC1=O)c1ccc(-c2ccccc2)cc1 | – | inactive: 20.4% |
| CCN1C=C(Cc2ccc(F)cc2)C2=C(C1)C(c1ccc(F)cc1)C(C#N)=C(N)O2 (stereo unspecified) | – | inactive: -22% |
| O=C(NCCCN1CCCC1=O)c1cc2c(s1)CCCCC2 | – | inactive: 7.15% |
| CC(C)c1ccccc1OCC(O)CN(CC(O)COc1cccc2ccccc12)C(C)C (stereo unspecified) | inconclusive [inhibitor, partial curve] | – |
| CCc1nc2c(OCC(=O)N3CCOCC3)cccn2c1N(C=O)Cc1ccccc1 | – | inactive: 6.47% |
| O=C(O)/C=C/C(=O)Nc1ccc(SC(F)(F)C(F)(F)C(F)(F)F)cc1 | inconclusive [inhibitor, partial curve] | – |
| COc1ccc(-c2[nH]ncc2-c2cnn(-c3ccccc3)c2)c(O)c1 | – | inactive: -12.6% |
| COc1ccc(S(=O)(=O)N2CCCc3ccccc32)cc1OC | inconclusive [inhibitor, partial curve] | – |
| Cc1cccc(N(C)S(=O)(=O)c2c[nH]c3ccc([N+](=O)[O-])cc23)c1 | inconclusive [inhibitor, single point] | – |
| Cc1ccc(CN2C(=O)CSCC2(C)C(=O)NC(C)C)cc1 (stereo unspecified) | inconclusive [inhibitor, full curve, poor fit] | – |
| Cc1cccc(C)c1NC(=O)C(c1ccnc2ccccc12)N1CCN(CCN(C)C)CC1 (stereo unspecified) | inconclusive [inhibitor, single point] | – |
| COC(=O)C1(C(=O)OC)c2ccccc2N(S(=O)(=O)c2ccc(C)cc2)C1CC(C)=O (stereo unspecified) | inconclusive [inhibitor, partial curve, poor fit] | – |
| CCCCC(CC)CN=C(N)NC(N)=NCCCCCCN=C(N)NC(N)=NCC(CC)CCCC (stereo unspecified) | inconclusive [inhibitor, single point] | – |
| Cc1ccccc1N=C1NC(=O)/C(=C/c2cccn2-c2cccc(C(=O)O)c2)S1 | inconclusive [inhibitor, partial curve] | – |
| CCOC(=O)c1c(Cc2ccccc2)c[nH]c1C | inconclusive [inhibitor, partial curve] | – |
| C[C@@]12C(=O)Nc3ccc(F)cc3C(=O)N1[C@H]1c3cc(Br)ccc3OC[C@@H]1[C@@H]2c1ccccc1 | – | inactive: -4.63% |

| SMILES | Potency | activity, negative = inhibition |
| --- | --- | --- |
| O=C(CC1C=Cc2ccccc2N1C(=O)c1ccccc1)c1ccccc1 (stereo unspecified) | inconclusive [inhibitor, full curve, poor fit] | – |
| CCC(CC)C(C(=O)NC1CCCC1)N1CCN(c2cc(C)nc3ccccc23)CC1 (stereo unspecified) | – | inactive: 0.749% |
| COc1ccc(CN2C(=O)C(CC(C)C)Nc3ncnc(N4CCN(c5ccccn5)CC4)c32)cc1 (stereo unspecified) | inconclusive [inhibitor, full curve] | – |
| C/C(=N\N=C1\NC(=O)C(CC(=O)Nc2ccc(C)c(Cl)c2)S1)C(C)C (stereo unspecified) | inconclusive [inhibitor, full curve] | – |
| CN1OC[C@@H]2CN(C(=S)NCCc3ccccc3)[C@H](c3ccccc3Br)C[C@@H]21 | inconclusive [inhibitor, partial curve] | – |
| Cc1ccc2nc(C3CCCCC3)c(Cc3ccccc3C(F)(F)F)n2c1 | inconclusive [inhibitor, partial curve] | – |
| Cc1cccc(OCCN2C(=O)C(=O)c3cc(C)ccc32)c1 | inconclusive [inhibitor, single point] | – |
| COc1ccc(-c2oc3cccnc3c2C#CCO)cc1 | inconclusive [inhibitor, single point] | – |
| CCc1ccc(/C=C2/SC(=S)N(CCCC(=O)Nc3ccccc3C(=O)O)C2=O)cc1 | inconclusive [inhibitor, partial curve, poor fit] | – |
| COC(=O)c1ccc2[nH]c(CO)c(-c3ccccc3)c2c1 | inconclusive [inhibitor, partial curve] | – |
| COc1cc(NC(=O)c2ccc(-c3c(C)noc3C)c3ccoc23)cc(OC)c1OC | inconclusive [inhibitor, partial curve] | – |
| CCOC(=O)CC(=O)CSc1nc(CC)c(C)cc1C#N | – | inactive: 0.758% |
| CCOc1ccccc1C=C1CCc2ccccc2C1=O | inconclusive [inhibitor, full curve] | – |
| NS(=O)(=O)c1ccc(N/N=C/c2ccc(C(=O)O)cc2)c([N+](=O)[O-])c1 | inconclusive [inhibitor, partial curve] | – |
| COc1ccccc1N(C)S(=O)(=O)c1ccc(C(=O)N(C)Cc2ccc(Cl)s2)cc1 | inconclusive [inhibitor, full curve] | – |
| CC1(C(=O)NS(=O)(=O)c2cccc(Cl)c2)CCN1C(=O)C1(c2ccc(Cl)cc2)CC1 (stereo unspecified) | inconclusive [inhibitor, partial curve] | – |
| COc1ccc(NC(=O)COC(=O)CCCOc2ccc(Cl)cc2Cl)cc1Cl | inconclusive [inhibitor, partial curve] | – |
| CC(C)(C)C(c1nc2ccccc2[nH]1)n1c(-c2ccsc2)nc2ccccc21 (stereo unspecified) | inconclusive [inhibitor, partial curve] | – |
| CC(C)n1c(-c2ccco2)csc1=Nc1cccnc1 | inconclusive [inhibitor, single point] | – |
| COc1ccc2oc(C)c(C(=O)c3ccccc3)c2c1 | inconclusive [inhibitor, full curve] | – |
| CCCS(=O)(=O)N1CCC(C(=O)NCCN2CCCC2)CC1 | inconclusive [inhibitor, single point] | – |
| CCCCOc1cc(C)nc(NCc2ccccc2)n1 | inconclusive [inhibitor, partial curve] | – |
